These results are taken from the RNAGym collection of RNA variant scans (doi:10.1093/nar/gkz1192).

First the molecules themselves.
B1: CPEB3 Ribozyme (parent)
chain: UAACAGGGGGCCACAGCAGAAGCGUUCACGUCGCAGCCCCUGUCAGAUUCUGGUGAAUCUGCGAAUUCUGCUGUAUAUCUC

The source gives no read counts; variants with many changes may rest on few reads.

Variants of B1 are the subject of the data set. Nature of the data set: self-cleavage, relative activity (ratio to wild type); higher = more cleavage; in vitro, sequencing. In short, it runs like this: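 Relative activity was defined as the cleaved/total read fraction for a variant divided by the same fraction for the unmutated ribozyme. CPEB3 self-cleaving ribozyme libraries were made by rounds of error-prone PCR, barcoded, and transcribed in vitro with T7 RNA polymerase for 5 hours at 37°C, and cleavage ran through transcription plus a 15 min DNase I step before EDTA. Illumina sequencing of template-switched reverse transcripts gave the reads, and DNA sequencing mapped the barcodes. Averages come from three batches, using variants with at least 5 reads.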
With U1C C27A A28G C34A U76A, the self-cleavage is 0.29.
Consider U1C A18G A35G C68U U72C, for which the self-cleavage is 0.84.
Regarding U1C G7A A57U U69A, the self-cleavage was 0.18.
In the case of U1C A13U A20G U25C U49C C62G, the self-cleavage is 0.5.
Turning to U1C A5U A13C A21U C29U U69A, the self-cleavage was determined as 0.07.
With U1C A35U C44U U51C C62A A64G, the self-cleavage is 0.12.
With U1C A5U G16C U41A, the self-cleavage worked out at 0.21.
U1C A2U U69C: the self-cleavage was 0.55.
Take U1C A15U C38A: the self-cleavage worked out at 0.43.
For U1C G30A A35G A57G, the self-cleavage came to 0.09.
Consider U1C G36C U58A C59G, for which the self-cleavage was found to be 0.06.
As for U1C U51A C71U A77U, the self-cleavage was found to be 0.8.
Regarding U1C A15U U49A, the self-cleavage came to 0.29.
For the variant U1C C34U A35G, the self-cleavage was found to be 0.3.
On to U1C A15G A21G U26A U41A C62G, for which the self-cleavage is 0.04.
Regarding U1C A35U U60A A77U, the self-cleavage was found to be 0.08.
To A2C U49A U51A U58C U60A belongs 0.11; to A2C A3G U66C, 0.34; to A2G A5G U49A U72C, 0.71.
Take A2C G6C A13G U25A U41C U66C: the self-cleavage was 0.06.
In the case of U1C U51C U69A, the self-cleavage was found to be 0.53.
To U1C G8A G22U U25A C50U belongs 0.04.
For U1C A15G U51A U72C the value was 1.08; for U1C U49C U54C U74C, 0.3.
In the case of A2G A15G A18G A20G G55A, the self-cleavage is 0.64.
In the case of U1C A35G U78A, the self-cleavage was found to be 1.44.
On to U1C U31A A47U U66C, for which the self-cleavage amounted to 0.15.
Consider U1C A13C A18G A45G U51A U54G, for which the self-cleavage turned out to be 0.29.
With A2G A13U A28U G33U C39U A57G, the self-cleavage was 0.05.
As to U1C G9U U26A U48A U54A U76C, the self-cleavage was 0.03.
U1G A13C A18G U41A U67C U72C: the self-cleavage is 0.18.
To U1C A13G G46A A47U U67C belongs 0.09; to U1C G10A C40A A57G A64U, 0.05; to A2G A15C G24A U25A U67C G70C, 0.07.
For the variant U1C A18U U31C A77G, the self-cleavage was found to be 0.33.
As for A2G A13G A45G A56G U80C, the self-cleavage was found to be 0.41.
Turning to U1G A20U U51A A65G U76C U80C, the self-cleavage stood at 0.07.
With U1C C27A A56C U58A U60G A64U, the self-cleavage turned out to be 0.08.
With U1C A15G A45C U60A, the self-cleavage was found to be 0.08.
Turning to U1C A21U U58C, the self-cleavage turned out to be 0.22.
In the case of U1C U31C A77U, the self-cleavage was found to be 0.9.
Turning to U1C A20G U51C U78C, the self-cleavage came out at 0.8.
To A2G A5G U31G U69C A75G U80A belongs 0.12; to A2C U26C U78C, 0.62; to U1C A13G U25C A35G U78C, 0.08.
On to U1C C44U A64G U66C, for which the self-cleavage came to 0.11.
As for U1C G10A A18U, the self-cleavage turned out to be 0.25.
In the case of A2C A5G A13G A18G G33A, the self-cleavage is 0.46.
With U1G G7U C29U U66C U69G A75G, the self-cleavage came out at 0.04.
As for U1C A20G C40A U49A U58G U60C U69C, the self-cleavage was 0.03.
To U1C A15U A18U A28U A35G U49C U76A belongs 0.2; to A2G A3G C34G U72C, 0.78.
As for U1C A21G A35U A45G A56G, the self-cleavage stood at 0.31.
In the case of A2G A3U U26A, the self-cleavage was determined as 1.05.
In the case of U1C A21G U51C U76A U80C, the self-cleavage amounted to 0.68.
For the variant U1C U43A A77U, the self-cleavage turned out to be 1.24.
Turning to U1C A15G U41C U60C, the self-cleavage was determined as 0.13.
To U1C A21G U25C A35G U41G belongs 0; to U1G A18G U72A, 0.34; to A2C A5G A18G U25C A28U C62U, 0.06.
With U1C A35U C38U C68A, the self-cleavage came out at 0.07.
Turning to U1C A3G C17U A28C C34U, the self-cleavage stood at 0.08.
As to U1C A65G U76A, the self-cleavage stood at 0.32.
For U1C G9U A35G C40U the value was 0.07; for U1C A47U U60C, 0.08.
In the case of U1C A18U A28G U48C U49A, the self-cleavage was determined as 0.17.
As to U1C C40A U66C, the self-cleavage stood at 0.3.
As to U1C A21G A35G U54A A75G C79U, the self-cleavage is 1.17.
Turning to U1C C12G C40A U41A A47U U72C C81A, the self-cleavage came to 0.02.
Turning to U1G U26C A35U U60C U76A, the self-cleavage amounted to 0.21.
On to U1C U54C U60C, for which the self-cleavage came out at 0.23.
For U1C G30U A35G U48A A65G, the self-cleavage was found to be 0.14.
To U1C G6A C37U U66C belongs 0.04; to U1C A5U A21G U31C U41C, 0.09; to U1G U43C U80C, 0.51.
On to A2G A5G A20U A21G U43C, for which the self-cleavage amounted to 0.47.
For U1C A13G A15G A65U the value was 0.01; for U1C U25C U26A G30A A56G A64U C71U, 0.03.
With U1C G16A A57G C59A, the self-cleavage came out at 0.12.
Regarding U1C A21G U72C U78C, the self-cleavage was determined as 0.29.
To U1C A18G G22C U67C A77U belongs 0.08.
To U1C A5C U26C A28G C81U belongs 0.3; to U1C U26C C50A U51A U58C U69A, 0.04; to U1C U54C U76C, 1.
U1C U26C U72G: the self-cleavage came out at 0.17.
For U1C A18U U25C U26C A35G, the self-cleavage is 0.08.
To U1C A56G A64G U67C U74G belongs 0.06; to U1C G53U U66C, 0.46; to A2G A3G A15U U41A U60A U69C, 0.11.
A2G A3G G30A U41A U60C U78C: the self-cleavage came out at 0.1.
Turning to U1C A45U U58C, the self-cleavage worked out at 0.2.
Consider U1C G9A G42C U66C U69C A77G, for which the self-cleavage stood at 0.15.
On to U1C G10A U25C U31C A57G U78C, for which the self-cleavage stood at 0.05.
Turning to U1C C14A A20U A75G, the self-cleavage stood at 0.13.
To U1C A3G A15U A45U A47G A75G belongs 0.26; to U1C U41C A65G, 0.4; to U1C G9A G24A A35G U43C C44A, 0.17.
For U1C A20G U74C the value was 1.05.
Consider U1C U54A A56G, for which the self-cleavage worked out at 0.82.
Take A2G A15C G16U U26A U31A A45G: the self-cleavage stood at 0.04.
Take A2G A5U A15U C40U A75U: the self-cleavage was determined as 0.66.
As for A2C G9A A20G A45U U69C A75U, the self-cleavage came to 0.05.
Turning to U1C A5G C59U U69C, the self-cleavage was 0.34.
With U1C A20U A21U U51A U60C, the self-cleavage worked out at 0.17.
For the variant U1C C4U A5G A13U C23A C39U U67C, the self-cleavage stood at 0.07.
As to U1C C4A C12U U78A, the self-cleavage is 1.19.
As for U1C A18U U49C, the self-cleavage worked out at 0.24.
With U1C A5U A35G A47C, the self-cleavage was 0.8.
To A2C A20G A45G belongs 0.53; to U1G A57G U80C, 1.03.
As to U1G G22U U25G U26C A28C G53U, the self-cleavage came to 0.32.
As to A2G A3G A18U C32U U41A U54A U80C, the self-cleavage is 0.17.
As to U1C A15G A77U, the self-cleavage turned out to be 0.41.
Consider U1C C17U U25C U51C A56G U60C G61A, for which the self-cleavage is 0.04.
Take U1C C12G A13G U69C: the self-cleavage worked out at 0.09.
On to U1C U25G A35G U48C U69G, for which the self-cleavage turned out to be 0.28.
Consider A2C A20G U25C U51A U58A A64U, for which the self-cleavage was found to be 0.24.
U1C U58G U78A: the self-cleavage worked out at 0.14.
Regarding U1C G8A A21G, the self-cleavage was 0.32.
To U1C A5G C11U belongs 0.44.
To U1G A20U U72A belongs 0.14; to U1C G9A A21G U25A A28U U43A U60A, 0.04.
Consider U1G U31A U43A U48C U49C A77U, for which the self-cleavage was 0.12.
As for U1C A15C A45G A64G, the self-cleavage turned out to be 0.29.
For U1C G30U A35G, the self-cleavage worked out at 0.05.
Consider U1C U25C U80C, for which the self-cleavage is 0.25.
Take A2G A5G A13U A18U A28G C40G: the self-cleavage amounted to 0.45.
For U1C A21G C23G U58C A64G the value was 0.2.
Consider U1C U26C U51C A77U, for which the self-cleavage was 0.47.
Consider U1C G9U C37G, for which the self-cleavage was determined as 0.05.
For U1C A5U U25C U26C A45U G52U, the self-cleavage was 0.43.
Regarding A2G A5G A35G A47U U72A, the self-cleavage was 0.11.
U1C G53A A57G: the self-cleavage amounted to 1.07.
For A2G A5U U58C the value was 0.38; for U1C A20G U60A A77G U78A, 0.23; for A2C C11U A28G U60A U76C, 0.26.
With U1C U43A U51A, the self-cleavage was 0.98.
For U1C A20U A35G U48C U51A U60A, the self-cleavage was found to be 0.1.
To U1C A45G U80A belongs 0.72; to U1C U26A A35G U54G U60C G73A, 0.87; to U1C U31C U41C U54C U76C, 0.71.
As to U1C G7C A28G U49A U60G, the self-cleavage worked out at 0.3.
As for U1C A28G A75G U80C, the self-cleavage came out at 0.39.
Regarding U1C G8A U41C U51G U69A U72C, the self-cleavage was determined as 0.05.
U1C U26A A56G: the self-cleavage is 0.72.
To A2G A15G A20G U41A A65G U80A belongs 0.47; to U1C C12U U54A A64G, 1.2.
To U1C U43C G52U belongs 0.79.
U1C A21U A35G: the self-cleavage was found to be 0.95.
For U1C A3U U41C U60A the value was 0.41.
As to U1C U54C U80C, the self-cleavage worked out at 1.09.
Take U1C A18U U41C C62U: the self-cleavage turned out to be 0.24.
Take U1C U43A U49C A56G: the self-cleavage was 1.12.
As to A2G A5U A28U C32U U49A U58C U66C, the self-cleavage stood at 0.08.
To U1C U49C U67C G73A C79U belongs 0.12; to U1C A35G U60C, 0.95.
Turning to U1C C27A A28G C34A C39U A45U, the self-cleavage stood at 0.14.
Regarding A2G A5G A20U U48G U60A, the self-cleavage turned out to be 0.17.
For U1C A5G U25C A65G, the self-cleavage came out at 0.33.
Take U1C A18G A45U C79A U80A: the self-cleavage was found to be 0.08.
As to A2G A15G G24A G30U U72A, the self-cleavage was 0.08.
To U1C A3C A18U U60C U69A belongs 0.98; to U1C A35G U41C U49C U72A U80C, 0.74; to U1C G10U A13G U25C, 0.07.
For A2G A5G U41C the value was 0.08; for A2G A13G U26C G61U U67G, 0.43.
To U1C U25G A28G belongs 0.41.
